The values below come from patent US4313952A, “Method of treating acute alcoholic intoxication with pyridoxine P.C.A” (priority 1980, dated 1982).

Assay [1] relates to patients suffering from acute ethylism. Briefly: Psychomotor excitation in patients with acute ethylism (i.v. treatment). As to conditions: P 250 mg (17 patients), PCP 300 mg (22 patients).
For assay [2] the test system is unchanged. The experiment in a line: Aggressivity in patients with acute ethylism (i.v. treatment). As to conditions: P 250 mg (11 patients), PCP 300 mg (17 patients).
A further assay deals with cases of acute ethylism. As to conditions: about 20 cases each week; cited from earlier work.

SMILES strings stand for the structures.

`Cc1ncc(CO)c(CO)c1O.Cl` [P, pyridoxine hydrochloride, reference compound]: in assay [1], the “Psychomotor excitation, worsening or persistence, % of patients” value was found to be 5.7% and the “Psychomotor excitation, worsening or persistence, number of patients” value came to 1 N. In assay [1] (<1 h.), the “Psychomotor excitation, rapid improvement <1 h., % of patients” value came to 11.8% and the “Psychomotor excitation, rapid improvement <1 h., number of patients” value is on record as 2 N. In addition, the “Psychomotor excitation, slow improvement <6 h., number of patients” value in assay [1] (<6 h.) turned out to be 14 N. In addition, in assay [2], the “Aggressivity, worsening or persistence, % of patients” value amounted to 0% and the “Aggressivity, worsening or persistence, number of patients” value stood at 0 N. In assay [2] (<1 h.), the “Aggressivity, ready improvement <1 h., % of patients” value was 18.1% and the “Aggressivity, ready improvement <1 h., number of patients” value was determined as 2 N. Also, in assay [2] (<6 h.), the “Aggressivity, slow improvement <6 h., % of patients” value came out at 81.8% and the “Aggressivity, slow improvement <6 h., number of patients” value came to 9 N.
Regarding `Cc1ncc(CO)c(CO)c1O` [pyridoxine], in the assay on cases of acute ethylism, the “Results as regards minor effects (space-time orientation, statics and equilibrium)” value is listed as “favourable”; the “Results as regards psychomotor excitation” value is listed as “inconstant results”.
